# Test results as given in the supplement of paper PMC11417369.
# The other results are listed elsewhere or left out.
# Tested on: PfHDP1 homeodomain (GST-tagged)
# Assay: gcPBM binding intensity (ln(normalized median fluorescence intensity)); higher = stronger DNA binding
# Procedure, shortened: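 Each value is the highest Masliner-normalised natural-log median intensity across replicate spots of either orientation of a probe. The probes were primer-extended double-stranded 36-bp intergenic genomic sequences on an Agilent 4 × 180k array, alongside negative controls, exposed for 1 h to GST-tagged P. falciparum DNA-binding domains expressed in E. coli. Bound protein was picked up with Alexa488 anti-GST antibody and scanned at 488 nm.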
row,Sequence,gcPBM binding intensity (ln)
1,TATACACATATATATAGTACATATATAATTTACTAT [XGTACX_site1849],6.63
2,ATATATACCTATATTACACACTTCTTATTCTAAGAA [CACACA_site7421],6.37
3,ATTGTTACATAAAATGCACACTTTCAAATATGCTAA [CACACA_site5600],9.94
4,TTAAAAAACATTTGAACATGCAATTGTATATGTAGA [TGCATGCA_site334],6.83
5,AAATATCAACTCAAATGTACAAATCACAAAAATGTA [XGTACX_site5344],6.47
6,ATATATGATGTATTTGTGCACATATATATATTATTA [GTGCAC_site9471],10.7
7,ATATTAAAAAGGAAATGTACGTAATGAAGATCAAGT [XGTACX_site3138],7.76
8,TAAATAAAAAGACACACACACATATTTATATTTATA [CACACA_site7135],6.84
9,GAGAAAAATATATACACACACATAAATATATACATA [CACACA_site1895],6.61
10,TAAATTGGTGCAAAGTGTACATATATATCTTTCCTA [XGTACX_site5458],10.4
11,TTCATATATAATTGTACACACAAAAACGACATTGTG [CACACA_site2074],7.05
12,GGAAATAAAATTAAATGTACGAAAACTCATTAAATT [XGTACX_site4274],5.83
13,TAAATATGAGGGAACACACACATGATATATAAATTC [CACACA_site2400],6.63
14,TATACTCATGGACACACACACATACACAGACATACA [CACACA_site5024],6.95
15,AAACGGGAGAAATAAAAATAAAAATAATAAAACAAA [XGTACX_negctrl_site586],6.78
16,TGAAAGAATAGAATGAGTACTAATTTAAATTACACT [XGTACX_site1120],6.57
17,TTGATTTCATTTTAAGTGCATAACTAATATTATATA [GTGCAC_site9713],9.53
18,TTCTTTATATATTTTTGTACATATTTATTTTTAGAG [XGTACX_site6757],6.91
19,ATATACAAAGAAGCAGTGCATATTTTCTTATTTATG [GTGCAC_site9567],8.05
20,ATTACCAACAGATCTTGTACATATTAAAGCATCTTA [XGTACX_site2361],6.42
21,TAAGTACGACTTGACACACATACACATATATATATA [CACACA_site1286],9.06
22,CAAATACACCAACACACACACACAAAAAAAAAAAAA [CACACA_site514],6.8

row,Sequence,gcPBM binding intensity (ln)
1,AAAAAATAAAAAATATGTACACATTCAAAATTTTAC [XGTACX_site8479],6.52
2,TGTGCTTATCCTAACACACACAACATATAAGAAAAA [CACACA_site3319],6.99
3,TATACATATTTATACACACACACATATATTTATATA [CACACA_site6727],7.04
4,ATATATATATATATATGTACATATTACATTACTTAT [XGTACX_site749],9.33
5,AAAAAGAAAAAAAACACACACAAATATAAATAAATA [CACACA_site1183],6.67
6,TTTTTTGCTAAGTGTACACAAATGTTTATTAATTTA [CACACA_site5859],7.27
7,TCTTTGGTAATATATATGTATAAATATAAATATATA [CACACA_negctrl_site1566],6.15
8,ATATATATATATGTTAGTACATAACAAGTGTGCATA [XGTACX_site1527],9.87
9,ATAAAACAAGCAAATCGTACAAAAGGATAATATATA [XGTACX_site5592],6.84
10,TTAGGTAGAAAAAAGACACACACATTATATATATAT [CACACA_site8016],8.65
11,ATATATATTTAAGAGGGTACAAAAATTTATGAGCAT [XGTACX_site6156],7.09
12,ATGTATGGTTTATATGTTCATTTGTTCACCTATTTA [CACACA_negctrl_site1533],6.88
13,AAAAAAAAAAAAAACACACACACACCCATACCCATA [CACACA_site5577],6.85
14,ATCATTCATTTAACAACACACAACATATTTATCATA [CACACA_site1041],6.72
15,AAATAGTTCATAAAAAGTACAAAATTTTTATCCGTA [XGTACX_site2796],6.13
16,TATAAAGGTTGGTACTGTACAATATAAGAAAAAAAA [XGTACX_site435],6.86
17,TATATATTATATAAGAGTACATATAATTATAGTTTT [XGTACX_site5039],6.23
18,GTATATATTTCCAGAAGTACTTATTTTTATGTATGT [XGTACX_site4079],6.66
19,TTTATTTTGACAGATTGTACACTTTATACATGTTTT [XGTACX_site2356],6.8
20,AATCTATATTAATACACACACACATATATTTATATA [CACACA_site7732],6.93
21,TGAAAAAAGAAAAATACACACATATAACATAATATA [CACACA_site7126],6.67
22,AAAAATGCCAGAAAACGTACTCGGATTTTCTAATAT [XGTACX_site6552],6.02
